Measurements as given in patent publication US20230295293A1, “BINDING MOLECULES AGAINST FRa” (AstraZeneca AB, priority 2022, published 2023).

Experiments:
human FRα [1] = molecular target: T1, human FRα (Homo sapiens, UniProt P15328); test: HTRF epitope competition assay with Comparator 3 IgG; type: binding; details: n > 2; human IgG1 format
T1 construct: CD33 leader (signal peptide) (N, cleaved yes); made in house; host or cells: in-house suspension-adapted CHO cell line
Description: (§1) HTRF epitope competition assays were set up using a titration of test IgG, 1 nM streptavidin cryptate, biotinylated human FRα and DyLight 650 labelled IgG to assay volume of 10 μl. For the Comparator Antibody 1 and Comparator Antibody 2 assays, 0.5 nM biotinylated human FRα and 0.5 nM DyLight 650 labelled Comparator Antibody 1 or Comparator Antibody 2 was used. […] Assay plates were incubated for 3-4 h at room temperature prior to fluorescence measurement.

cyno FRα [2] = test: HTRF antigen (IgG) binding assay; parameters: species or system cynomolgus monkey; details: hybridoma supernatant, 1 nM biotinylated antigen; binder >30% delta F
Description: (§2) The negative control ratio was derived from nonspecific binding (NSB) control wells. Curves were analysed using GraphPad Prism software using a four-parameter logistic curve-fitting equation.

[3] = Accelerated thermal stability assay, HP-SEC; type: physicochemical; details: 2 weeks, 1 mg/ml in PBS
Description: IgG were diluted to 1 mg/ml in PBS then incubated at 4° C. or 45° C. for 2 weeks then filtered using filter spin columns (Millipore, UFC30HVNB). High performance-size exclusion chromatography (HP-SEC) was performed by loading 70 μl of IgG onto a TSKgel G3000SWXL; 5 μm, 7.8 mm×300 mm column using a flow rate of 1 ml/min and 0.1 M sodium phosphate dibasic anhydrous and 0.1 M sodium sulphate, pH 6.8 as the isocratic running buffer. Larger molecules are excluded from the pores of the size exclusion column to a greater extent than smaller molecules, and therefore elute earlier. Peaks eluting earlier than the monomer peak are recorded as aggregates. Peaks eluting after the monomer peak (excluding the buffer-related peak) are recorded as fragments. In parallel, antibodies were profiled in the HTRF epitope competition assay for changes in potency.

human FRα [4] = molecular target: T1, human FRα; test: HTRF epitope competition assay with Comparator 1 IgG; type: binding; details: n > 2; human IgG1 format
Description: as §1

cyno FRα [5] = test: Biacore T200 surface plasmon resonance affinity; type: binding, cynomolgus monkey; details: SPR 25° C.
Description: (§3) Protein A was covalently immobilised to a CM5 chip surface using standard amine coupling techniques at a concentration of 50 μg/ml in 10 mM Sodium acetate, pH 4.0. The antibody was captured onto the Protein A surface in HBS-EP+ buffer, pH 7.4 at 10 μl/min to enable FRα ECD binding. The FRα ECD was serially diluted (0.4 nM-100 nM human FRα ECD; 0.8 nM-200 nM cyno FRα ECD; 30 nM-4000 nM mouse FRα ECD and rat FRα ECD) in HBS-EP+ buffer, pH 7.4 and flowed over the chip at 50 μl/min, with 2 minutes association and 8 minutes dissociation. The chip surface was fully regenerated with pulses of 3 M MgCl2 to remove captured antibody together with any bound FRα ECD. Multiple buffer-only injections were made under the same conditions to allow for double reference subtraction of the final sensorgram sets, which were analysed using Biacore T200 Evaluation Software to derive equilibrium dissociation constants.

[6] = Pharmacokinetics of anti-FRα antibodies in wild-type SCID mice; type: in vivo, mouse; details: 5 mg/kg iv bolus, total antibody
Description: Pharmacokinetic parameters were determined using Phoenix 64 software (Certara).
Plasma antibody concentrations were determined by the universal ELISA IgG assay.

human FRα [7] = molecular target: T1, human FRα; test: Biacore T200 surface plasmon resonance affinity; type: binding; details: SPR 25° C.
Description: as §3

[8] = Hydrophobic interaction chromatography (HIC) HPLC; type: physicochemical; details: higher retention = more hydrophobic
human FRα [9] = molecular target: T1, human FRα; test: HTRF epitope competition assay with Comparator 2 IgG; type: binding; details: n > 2; human IgG1 format
Description: as §1

human FRα [10] = molecular target: T1, human FRα; test: HTRF antigen (IgG) binding assay; details: hybridoma supernatant, 1 nM biotinylated antigen; binder >30% delta F
Description: as §2

mouse FRα = molecular target: T2, mouse FRα (Mus musculus, UniProt P35846); test: HTRF antigen (IgG) binding assay; details: hybridoma supernatant, 1 nM biotinylated antigen; binder >30% delta F
T2 construct: CD33 signal peptide (N, cleaved yes); made in house
T2 sequence (P35846 with tags, fused parts or gaps): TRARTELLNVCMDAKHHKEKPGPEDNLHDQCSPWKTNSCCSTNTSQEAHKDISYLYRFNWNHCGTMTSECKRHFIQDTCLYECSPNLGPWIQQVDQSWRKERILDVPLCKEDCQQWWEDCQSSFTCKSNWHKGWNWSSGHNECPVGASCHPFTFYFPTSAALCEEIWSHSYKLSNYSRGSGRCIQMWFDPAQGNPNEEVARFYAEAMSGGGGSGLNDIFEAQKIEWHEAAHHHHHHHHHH
Description: as §2

human FRγ = molecular target: T3, human FRγ (Homo sapiens, UniProt P41439); test: HTRF antigen (IgG) binding assay; details: hybridoma supernatant, 1 nM biotinylated antigen; binder >30% delta F
T3 construct: CD33 signal peptide (N, cleaved yes); made in house
T3 sequence (P41439 with tags, fused parts or gaps): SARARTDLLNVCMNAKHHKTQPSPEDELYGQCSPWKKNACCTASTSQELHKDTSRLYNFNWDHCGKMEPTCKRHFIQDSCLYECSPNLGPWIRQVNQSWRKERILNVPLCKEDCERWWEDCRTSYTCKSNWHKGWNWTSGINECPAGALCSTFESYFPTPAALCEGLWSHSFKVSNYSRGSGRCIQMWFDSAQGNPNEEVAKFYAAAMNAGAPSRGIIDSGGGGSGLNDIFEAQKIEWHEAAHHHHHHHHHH
Description: as §2

human FRβ = molecular target: T4, human FRβ (Homo sapiens, UniProt P14207); test: HTRF antigen (IgG) binding assay; details: hybridoma supernatant, 1 nM biotinylated antigen; binder >30% delta F
T4 construct: CD33 signal peptide (N, cleaved yes); made in house
T4 sequence (P14207 with tags, fused parts or gaps): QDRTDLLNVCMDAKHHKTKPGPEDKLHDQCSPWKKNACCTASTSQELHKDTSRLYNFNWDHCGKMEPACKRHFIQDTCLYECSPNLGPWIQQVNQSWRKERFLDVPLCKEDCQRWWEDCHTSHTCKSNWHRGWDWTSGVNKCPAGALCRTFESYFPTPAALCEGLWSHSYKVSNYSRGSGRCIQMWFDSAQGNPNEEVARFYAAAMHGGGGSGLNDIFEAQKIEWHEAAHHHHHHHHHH
Description: as §2

T1 sequence (P15328 with tags, fused parts or gaps): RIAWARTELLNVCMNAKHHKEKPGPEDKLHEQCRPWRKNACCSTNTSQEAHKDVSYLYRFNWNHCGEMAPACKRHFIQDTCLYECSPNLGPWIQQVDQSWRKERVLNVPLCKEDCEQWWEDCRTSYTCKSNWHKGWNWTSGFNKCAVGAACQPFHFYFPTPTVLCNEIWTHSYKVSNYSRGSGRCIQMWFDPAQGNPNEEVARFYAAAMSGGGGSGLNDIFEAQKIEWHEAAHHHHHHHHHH

B1: AB1370117: anti-FRα fully human IgG1 antibody; VH SEQ ID NO: 47, VL SEQ ID NO: 48 (antibody, V domains shown)
VH: QVQLQQSGPGLVKPSQTLSLTCAISGDSVSSDSATWNWIRQSPSRGLEWLGRTYYRSKWYSDYAVSVKSRITINPDTSKNQFSLQLNSVTPEDTAVYFCARGGAPFDYWGQGTLVTVSS
VL: [letters of about 100 residues not shown]MYTFGQGTKLEIK
With B1 the “HTRF epitope competition assay, geomean IC50 (M), Comparator 3 IgG” value (human FRα [1]) was “inhibited”, the “HTRF IgG binding assay (% Delta F) Cyno FRα” value (cyno FRα [2]) was 67.23 % Delta F and the “HP SEC % monomer” value ([3]; 4° C.) was 99.4%. For the same molecule, the “HP SEC % monomer” value ([3]; 45° C.) was 97.0%, the “HTRF epitope competition assay, geomean IC50 (M), Comparator 1 IgG” value (human FRα [4]) was “inhibited” and the ka (cyno FRα [5]) was 364000 M⁻¹ s⁻¹. It also gave a kd (cyno FRα [5]) of 0.00187 s⁻¹, an AUClast [6] of 762 µg·days/mL and a CL [6] of 5.2 mL/day/kg. It also gave a Cmax [6] of 110.9 µg/mL, a Vss [6] of 0.071 L/kg and a t1/2 [6] of 240 h. The ka (human FRα [7]) was 293000 M⁻¹ s⁻¹, the kd (human FRα [7]) was 0.000762 s⁻¹ and the “Retention time by HIC-HPLC” value [8] was 2.27 min. For the same molecule, the “HTRF epitope competition assay, geomean IC50 (M), Comparator 2 IgG” value (human FRα [9]) was “inhibited”, the “HTRF IgG binding assay (% Delta F) Human FRα” value (human FRα [10]) was 79.81 % Delta F and the “HTRF IgG binding assay (% Delta F) Mouse FRα” value (mouse FRα) was −3.41 % Delta F. For the same molecule, the “HTRF IgG binding assay (% Delta F) Human FRγ” value (human FRγ) was −1.77 % Delta F and the “HTRF IgG binding assay (% Delta F) Human FRβ” value (human FRβ) was −1.07 % Delta F.
